Results taken from PubChem BioAssay AID1159614 (National Center for Advancing Translational Sciences (NCATS), 2016).
In all, about 45,000 compounds went through this assay and about 65 (0.1%) were called active. Calls follow the shape of the dose curve; as a rule, active = well fitted activation curve with a large enough effect; inconclusive = small, poorly fitted or top-dose-only effect; inactive = no such curve, though single readings can be large or run the other way. The list shows a part of the results.

Target: Galactocerebrosidase (Homo sapiens) (UniProt P54803)
Chain of UniProt P54803 (P54803 whole entry, looked up): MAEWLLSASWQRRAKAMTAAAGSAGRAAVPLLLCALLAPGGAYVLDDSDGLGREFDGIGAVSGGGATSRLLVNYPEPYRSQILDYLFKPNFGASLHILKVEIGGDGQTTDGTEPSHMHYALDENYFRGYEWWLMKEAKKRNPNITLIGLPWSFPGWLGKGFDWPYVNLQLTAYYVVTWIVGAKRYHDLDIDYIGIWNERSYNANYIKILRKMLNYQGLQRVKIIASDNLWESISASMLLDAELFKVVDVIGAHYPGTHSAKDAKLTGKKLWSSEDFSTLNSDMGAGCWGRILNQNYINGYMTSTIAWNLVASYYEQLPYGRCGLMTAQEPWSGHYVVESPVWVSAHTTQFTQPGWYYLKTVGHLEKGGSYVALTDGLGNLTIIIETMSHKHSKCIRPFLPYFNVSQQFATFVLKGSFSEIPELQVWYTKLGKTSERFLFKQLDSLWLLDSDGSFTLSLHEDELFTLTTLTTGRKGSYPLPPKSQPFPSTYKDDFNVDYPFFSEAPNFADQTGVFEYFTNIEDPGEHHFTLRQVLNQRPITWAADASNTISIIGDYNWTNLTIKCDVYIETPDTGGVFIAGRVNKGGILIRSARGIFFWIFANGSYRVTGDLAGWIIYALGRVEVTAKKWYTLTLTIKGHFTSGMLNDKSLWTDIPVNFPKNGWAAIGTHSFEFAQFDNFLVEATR
Test: A Novel Cell-Based Assay to Identify Small Molecules for B -Galactocerebrosidase; also: 0% is about no effect; nearly all actives have a fitted effect of over 65% in size
Conditions: 145M-Twi-hGALC-G270D cells (Twitcher mouse brain line with human GALC G270D), HMU-beta-Gal fluorescence, 48 h; series mostly up to 57.5 µM; activation: at the top concentration
Summary of the method: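 Fluorescence readout: HMU-β-gal cleavage by mutant GALC (0.1 mM final, citrate/phosphate pH 5.2 with 1 mg/mL taurocholate), stopped with carbonate/bicarbonate plus Triton X-100. Cells: murine Twitcher 145M-Twi expressing human G270D GALC; qHTS for activators.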

activation, inactive:
CC(=O)N1CCC2(CC1)OC(=O)C(C)=C2C(=O)NCc1ccc(Cl)cc1 -2.37%, CCc1ccc(CNC(=O)c2ccc3nc(C(C)C)oc3c2)cc1 -13.3%, CCCc1ccc(OCC(=O)N2CCN(C(=O)COc3ccc(CCC)cc3OC)CC2)c(OC)c1 -7.92%, CCc1ccc(NC(=O)C(=O)NCC(c2cccnc2)N2CCN(C)CC2)cc1 (configuration not stated) -7.98%, COc1ccc(OC(C)c2nc3ccccc3[nH]2)cc1 (configuration not stated) -26.2%, O=C(Nc1ccc2oc(-c3cccnc3)nc2c1)c1ccc(-c2ccccc2)o1 -14%, O=c1cc(-c2ccc(F)cc2)nc(SCc2nc(-c3ccccc3Cl)no2)[nH]1 -11%, COC(=O)c1ccc(Cl)cc1NC(=O)N(C)CCc1c(C)nn(C)c1C -17.3%, CCOc1ccc(NC(=O)C(=O)NCCc2csc3nc(-c4ccccc4F)nn23)cc1 -8.32%, CCOC(=O)c1ccc(NC(=O)c2csc3c2CCCCC3)cc1 -31.5%, COc1cc(NC(=O)C(CC(C)C)NS(=O)(=O)c2ccc3c(c2)oc(=O)n3C)c(C(=O)O)cc1OC (configuration not stated) -5.06%, CCOc1ccc(NC(=O)Cn2cc(C(=O)c3ccc(C)c(C)c3)c(=O)c3cc(OC)c(OC)cc32)cc1 2.86%, O=C(COc1ccccc1Cl)Nc1ccc(Cl)c(-c2nc3ccccc3o2)c1 -7.39%, O=C(O)c1ccc2nc(-c3cc4cc(F)ccc4oc3=O)[nH]c2c1 -12.5%, Cc1cccc(N2CCN(C(=O)c3cc4c(=O)n(C)c5ccccc5c4s3)CC2)c1C -8.34%, COc1ccc(CCn2c3c(c(=O)[nH]c2=O)C(NC(=O)c2ccccc2OC)(C(F)(F)F)C(=O)N3)cc1OC (configuration not stated) -7.79%, COc1cc(C(=O)Nc2ccc(NC(=O)c3ccc(Br)cc3)cc2)cc(OC)c1OC -3.34%, Cc1ccc(-n2ccnc(NCCc3ccc(S(N)(=O)=O)cc3)c2=O)cc1C 1.41%, Cc1oc(-c2cccc(Cl)c2)nc1CSc1nc2ncccc2[nH]1 -0.932%, CCC1CCCCN1C(=O)CSc1nc2c([nH]c3ccccc32)c(=O)n1-c1cccc(OC)c1 (configuration not stated) -27.7%, CCOc1ccc(C(=O)Nc2ccc(S(=O)(=O)N3CCCCC3c3cccnc3)cc2)cc1 (configuration not stated) -19.2%, CCc1cccc(C)c1NC(=O)Cn1c(=O)cc(C(F)(F)F)c2c(C)nn(C)c21 -8.93%, Cc1cccc(N2CCN(c3nc4ccccc4c(=O)n3-c3ccc(Cl)cc3)CC2)c1C -12.8%, Cc1ccc(C)c(S(=O)(=O)NCC(c2ccco2)S(=O)(=O)c2ccc(F)cc2)c1 (configuration not stated) -28.3%, CCOc1ccc(CCNC(=O)c2cnc3sc(N4CCOCC4)nn3c2=O)cc1 -8.94%, COc1ccc(Cn2ccnc2SCC(=O)NCc2ccccc2)cc1 -15.5%, CCC1CCCCN1C(=O)c1nn(-c2ccc(C)cc2)c(=O)c2c1c1ccccc1n2C (configuration not stated) -21.1%, COc1ccccc1-c1ccnc2[nH]n(-c3ccccc3)c(=O)c12 -16.7%, O=C(NCc1cccs1)C1CCN(C(=O)N2CCOc3ccccc32)CC1 -11.7%, O=C(CSc1nc2c([nH]c3ccccc32)c(=O)n1-c1ccccc1)c1ccccc1 -3.67%, O=C(Nc1c(-c2ccccc2)nc2ccccn12)c1ccc(Br)cc1 -7.76%, Cc1ccc(N2CCN(C(=O)c3ccc4c(Cl)c5c(nc4c3)CCCC5)CC2)c(C)c1 -5.07%, O=C(Nc1ccc(F)cc1F)c1c2c(nc3ccccc13)C(=O)N(C1CCCCC1)C2 -15.3%, Cc1noc(C)c1S(=O)(=O)N(CC(=O)NCc1ccccc1Cl)c1ccc(C(C)C)cc1 -14.6%, COc1ccc(-c2nn(CC(=O)Nc3ccccc3F)c3c2cnc2ccc(F)cc23)cc1 -19.6%, COc1ccc(C2C(=O)N(C3CCCCC3)CC(=O)N2Cc2ccccc2Cl)cc1OC (configuration not stated) -7.68%, CCOC(=O)c1cc(OC(=O)c2ccc(Cl)cc2)n(-c2ccccc2)n1 -12%, Cc1ccc(N(CC(=O)N2CCN(c3ccc(Cl)cc3)CC2)S(=O)(=O)c2c(C)noc2C)cc1 -35.9%, COc1ccc(CNC(=O)Cn2ncn3nc(-c4cccs4)cc3c2=O)cc1 -27.8%, CCN(CC)CCNC(=O)c1cc(Cl)c(N)cc1OC -12.8%, Cc1ccc(-c2nc(S(=O)(=O)c3ccc(C)cc3)c(N3CCN(c4ccccc4)CC3)o2)cc1 10.8%, Cc1ccc(C)c(N2CCN(CCCNC(=O)Cn3ncc4c([nH]c5ccccc54)c3=O)CC2)c1 -6.28%, COc1ccc(N2CCN(S(=O)(=O)CCNC(=O)c3ccc(C(F)(F)F)cc3)CC2)cc1 -16.5%, CCc1ccc(-n2nc(C)c3c(C(=O)NCCc4ccc(OC)c(OC)c4)cc(C)nc32)cc1 -0.501%, CCCC(=O)O[C@]1(C(=O)CCl)[C@@H](C)C[C@H]2[C@@H]3CCC4=CC(=O)C=C[C@]4(C)[C@@]3(F)C(=O)C[C@@]21C -19.1%, CCCCCn1c(=O)[nH]c2cc(C(=O)NCc3ccc(OC)cc3)ccc2c1=O -8.51%, CCOC(=O)c1ccc(NC(=O)CCS(=O)(=O)c2ccc3c(c2)oc(=O)n3C)cc1 -9.4%, CCOc1ccc2ccccc2c1C(=O)N[C@@H]1C(=O)N2[C@@H]1SC(C)(C)[C@@H]2C(=O)O -17.9%, Cc1ccc(Cl)cc1N1CCN(S(=O)(=O)c2ccc3[nH]c4c(c3c2)CCCC4)CC1 -13.5%, COc1ccccc1NC(=O)CN1C(=O)c2cccc3cccc1c23 -6.89%, Cc1cccc(N2CCN(C(=O)C3CCN(S(=O)(=O)c4cn(C)cn4)CC3)CC2)c1C -9.14%, COc1ccccc1N(CC(=O)Nc1ccccc1F)S(C)(=O)=O -21.9%, Cc1cccc(CN2C(=O)CC(c3ccc(Cl)cc3)c3c(C)nn(-c4nc(C)cc(C)n4)c32)c1 (configuration not stated) -9.37%, CCCCN(CCCC)CCNC(=O)CN1C(=O)CSc2ccc(S(=O)(=O)N3CCCCC3)cc21 -13.1%, CCCNc1nc(NCc2ccccc2OC)c2cnn(C)c2n1 -8.9%, CCN(CCCNC(=O)c1cc2c(=O)[nH]c3ccc(C)cc3c2s1)c1ccc(C)cc1 -23.9%, COc1ccc(C2NC(=O)c3c(sc4c3CCN(C)C4)N2)cc1O (configuration not stated) -8.69%, CCc1ccc(NC(=O)C(CC)n2nnc(C(=O)OC)c2C(=O)OC)cc1 (configuration not stated) -31.2%, CCOc1ccc(-n2nc3cc(C)c(NC(=O)CC)cc3n2)cc1 -22.6%, CN(C)C/C=C(/c1ccc(Br)cc1)c1cccnc1 -8.25%, CCC(CO)Nc1ncnc2c1cnn2-c1ccc(C)cc1 (configuration not stated) -8.7%, CCOc1ccccc1CNC(=O)c1cnc2sc(N3CCCC3)nn2c1=O -0.344%, CCOCCCn1c(SCC(=O)Nc2cccc(OC)c2)nc2ccccc2c1=O 3.15%, COc1ccccc1NC(=O)C1CCN(S(=O)(=O)c2ccc3c(c2)oc(=O)n3C)CC1 -10.7%, Cc1ccc(Cl)cc1Nc1nn2c(=O)c3ccc(C(=O)NCc4cccs4)cc3nc2s1 -6.79%, CCCN1C(=O)c2ccccc2CC1(C)C(=O)NC1CCCCC1 (configuration not stated) -7.67%, Cc1ccc(NC(=O)N2CCN(c3nnc(C)c4c(C)n(-c5ccccc5)nc34)CC2)cc1Cl -15.2%, Cc1ccc2nc(N(Cc3cccnc3)C(=O)c3ccc4c(c3)OCCO4)sc2c1 -18.9%, CCN(c1ccc(Cl)cc1)S(=O)(=O)c1nnc(NC(=O)C2CCCCC2)s1 -20.6%, CCOCCc1nn2c(=O)cc(COC(=O)c3cccs3)nc2s1 -6.35%, O=C(NCc1ccc2c(c1)OCO2)c1ccc2c(c1)N(Cc1ccc(F)cc1)C(=O)c1ccccc1S2=O (configuration not stated) -12.8%, NC/C=C/C(=O)O -13.7%, Cc1ccc(C)c(CN2CCC(CNC(=O)Cn3ncc4c([nH]c5ccccc54)c3=O)CC2)c1 -9.61%, O=C(NCCCN1CCOCC1)c1ccc2c(c1)N(Cc1ccccc1)C(=O)c1ccccc1S2 -8.15%, CCn1c2ccccc2c2nnc(N3CCN(c4cccc(C)c4C)CC3)nc21 -13.6%, O=C(Cn1nc(N2CCN(c3ccccc3)CC2)ccc1=O)NCc1cccc(Cl)c1 -0.393%, Cc1cccc(OCCCCn2nnc3sc4c(c3c2=O)CCC(C)C4)c1 (configuration not stated) -14.9%, CCOc1ccccc1CNC(=O)CN1C(=O)CCCc2ccccc21 -12.4%, Cc1ccc(-n2ncc3c(NCCc4ccccc4)ncnc32)cc1C -9.82%, CCOC(=O)CSc1nc2sc3c(c2c(=O)n1Cc1ccccc1)CC(C)CC3 (configuration not stated) -21.1%, CCOc1ccc(NC(=O)NC(C)c2c(-n3cccc3)sc(C)c2C)cc1 (configuration not stated) -8.84%, COc1ccc(-n2c(/C=C/c3cc(OC)c(OC)cc3OC)nc3cc4ccccc4cc3c2=O)cc1Cl -13.7%, CCN(CC)CCNC(=O)C1CCN(S(=O)(=O)c2c(C)noc2/C=C/c2ccccc2F)CC1 -6.75%, Cc1ccc(OCCSc2nc3ccc(NC(=O)COc4ccc(F)cc4)cc3s2)cc1 -17.5%, O=C(COc1ccccc1)Nc1ccc(C(=O)OCc2cc(=O)n3nc(C4CC4)sc3n2)cc1 -17.2%, Cc1nc2nc(SCC(=O)NCc3ccccc3)nn2c(C)c1Cc1ccccc1Cl -8.21%, Cc1cc(C)n2c(Nc3c(C)cccc3C)c(-c3ccsc3)nc2n1 -16.2%, O=C(CN1CCCN(Cc2ccccc2Cl)S1(=O)=O)Nc1ccc2c(c1)OCCO2 -2.2%, CCOC(=O)c1cc(-c2ccc(F)cc2)n(CC(=O)NC2CCCCC2)c1C -21.8%, O=C(Cc1cccs1)NC1CC(=O)N(c2ccccc2)C1 (configuration not stated) -2.77%, CCc1cccc(C)c1NC(=O)CN1CCCN(Cc2ccc(C)cc2)S1(=O)=O -13%, COc1ccc(-c2c(C)nn3c(C(F)(F)F)cc(-c4ccc(Br)cc4)nc23)cc1 -9.87%, CCOc1ccc(CCNC(=O)c2ccc(CS(=O)(=O)Cc3ccccc3Cl)o2)cc1OCC -7.6%, Cc1ccccc1CN1CCc2nc(Nc3ccc4c(c3)OCCO4)ncc2C1 -6.11%, Cc1ccc2c(c1)c1c3n2CCNC3CCC1 (configuration not stated) -7.78%, CCN(C(=O)COc1cc(=O)n(C)c2ccccc12)c1cccc(C(F)(F)F)c1 -16.2%, CCOc1ccc(-c2ccc(NS(=O)(=O)c3cc(C)c(C)cc3C)cc2)nn1 -12.5%
